Article PMC6919601, “Identification of Plasmodium dipeptidyl aminopeptidase allosteric inhibitors by high throughput screening” (PLoS ONE, 2019)
Out of some 110,000 compounds screened, about 230 (0.21%) showed an effect of 50% or more. This is one part of the list.

Each compound was assayed against DPAP1 (Plasmodium falciparum, UniProt Q8IIJ9) (assay: primary screen, percent inhibition; read by cleavage of a fluorogenic dipeptide substrate; higher = more effect of the substance).
Set-up: species or system P. falciparum D10 trophozoite lysates; single well
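Also: 30 min substrate incubation versus DMSO and 10 µM JCP410 controls.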

Chain of DPAP1 (Q8IIJ9 whole entry, looked up): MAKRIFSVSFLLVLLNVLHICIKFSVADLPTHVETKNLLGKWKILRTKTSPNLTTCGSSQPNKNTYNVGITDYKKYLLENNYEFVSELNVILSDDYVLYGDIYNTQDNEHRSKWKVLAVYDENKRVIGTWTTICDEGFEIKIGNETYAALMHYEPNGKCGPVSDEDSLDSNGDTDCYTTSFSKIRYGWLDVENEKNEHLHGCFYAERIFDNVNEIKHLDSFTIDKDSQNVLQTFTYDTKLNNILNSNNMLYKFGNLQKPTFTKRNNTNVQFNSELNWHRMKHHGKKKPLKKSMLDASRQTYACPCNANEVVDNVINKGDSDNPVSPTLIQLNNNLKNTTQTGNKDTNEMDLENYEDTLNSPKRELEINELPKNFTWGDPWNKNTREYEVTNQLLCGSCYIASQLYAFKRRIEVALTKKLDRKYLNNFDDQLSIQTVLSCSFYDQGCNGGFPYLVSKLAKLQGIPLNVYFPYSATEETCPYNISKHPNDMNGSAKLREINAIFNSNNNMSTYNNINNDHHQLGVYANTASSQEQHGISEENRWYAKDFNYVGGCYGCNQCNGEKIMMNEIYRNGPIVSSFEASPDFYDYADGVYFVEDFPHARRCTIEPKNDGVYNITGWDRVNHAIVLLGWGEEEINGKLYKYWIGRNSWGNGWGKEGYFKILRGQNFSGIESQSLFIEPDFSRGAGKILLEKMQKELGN

Structure (SMILES)	% Inhibition @ 10 uM [%]
Cc1nnc(N2CCN(C(=O)NCCc3ccccc3)CC2)c2nn(-c3ccccc3)c(C)c12	9.62
O=C(NCc1ccco1)c1cnn(-c2ccc(F)cc2)c1-n1cccc1	-1.95
CN1/C(=C/C(=O)c2ccco2)Sc2ccccc21	-1.29
CCCOc1cccc(C2C(C(=O)c3ccc(F)cc3)=C(O)C(=O)N2Cc2ccco2)c1 (stereo not drawn)	-0.766
O=C(c1ccccc1C(=O)N1CCc2ccccc21)N1CCc2ccccc21	0.389
O=C(NCc1ccc2c(c1)OCO2)C1CCCN1S(=O)(=O)c1cccc2nsnc12 (stereo not drawn)	1.26
CC(=O)c1cccc(NC(=O)C2C3CCC(C3=C(C)C)C2C(=O)O)c1 (stereo not drawn)	-3.63
CC(=O)Nc1c(C(=O)N2CCN(Cc3ccccc3)CC2)cnn1-c1ccccc1Cl	-4.86
COc1ccccc1/C=C1\SC(Nc2ccc(F)cc2)=NC1=O	1.72
CC1(C)Cc2ccccc2-c2nc3n(c(=O)c21)CCCS3	0.392
NC(=O)NC(c1ccccc1)c1ccc(F)cc1 (stereo not drawn)	-3.32
CC1CCCCC1/N=C/c1c(O)[nH]c2ccccc12 (stereo not drawn)	4.74
Cn1c2c(c(=O)n(C)c1=O)C(c1ccc(Cl)cc1)C1=C(O)c3ccccc3C1=N2 (stereo not drawn)	6.08
CCn1c2ccc(F)cc2c2nnc(S)nc21	32.8
O=C(CSc1nc2c(sc3ccccc32)c(=O)n1CCCN1CCCC1)NCC1CCCO1 (stereo not drawn)	13.3
CC(C)CNC(=O)CCn1cnc2onc(-c3ccc(F)cc3)c2c1=O	-7.65
Cn1c2ccccc2c2cnn(CC(=O)NCc3ccc4c(c3)OCO4)c(=O)c21	-5.49
CCOC(=O)C1=CN(C)C=C(C(=O)OCC)C1c1ccccc1Br	6.48
N#C/C(=C\c1cccc2ccccc12)C(N)=O	3.53
Cn1c2ccccc2c2cnn(CC(=O)NCc3ccccn3)c(=O)c21	2.99
Cc1ccc2[nH]c3c(c2c1)CCCC3NC(N)=O (stereo not drawn)	3.05
COc1ccc(S(=O)(=O)N(C)C2CCCCC2)cc1-c1nnc2c3ccccc3c(C)nn12	-1.11
CCOc1ccccc1C1SCC(=O)Nc2c1c(O)nn2C1CCCC1 (stereo not drawn)	-0.45
CN1C(=O)CC(C(=O)Nc2ccccc2F)S/C1=N\c1cccc(F)c1 (stereo not drawn)	5.03
Cc1cc(C)c2c(=O)n(CC(=O)NCCCSC3CCCCC3)sc2n1	17.9
CCCOc1ccc(Oc2nc(NCC)cc(NC(C)(C)C)n2)nn1	-4.85

Structure (SMILES)	% Inhibition @ 10 uM [%]
Cc1ccc(C(C)C)c(OCCOCCN2CCNCC2)c1	-0.279
CCN1C(=O)/C(=C/c2ccc(O)cc2)S/C1=N/c1ccc(OC)cc1	16.9
CC(C)N(Cc1ccccc1)C(=O)[C@H]1[C@@H]2C[C@@H]3[C@H]1C(=O)O[C@@H]3C2	5.35
OC1CCCCC1N1CCC(c2ccccc2)C1 (stereo not drawn)	-2.91
CCNC(=O)C1CCCN(S(=O)(=O)N2CCCCC2)C1 (stereo not drawn)	0.335
Cc1csc(NC(=O)c2cnn(-c3ccccc3)c2-n2cccc2)n1	4.17
Cc1ccc(N(CC(=O)N2CCN(C(c3ccccc3)c3ccccc3)CC2)S(C)(=O)=O)c(C)c1	6.4
Cc1cc(OCC(=O)Nc2ccc(C(N)=O)cc2)c(C(C)C)cc1Br	1.94
CCN(CCN(C)C)Cc1cc(F)ccc1F	1.9
Cc1ccc(C(CC(=O)NCc2ccco2)N2Cc3ccccc3C2=O)cc1 (stereo not drawn)	5.08
COC(=O)c1sc(NC(=O)c2ccccc2Cl)nc1C	2.17
COc1ccc(Nc2nc(N)nc(CSc3ncccn3)n2)cc1	-0.872
Cc1ccc(CS(=O)Cc2ccc(C(=O)NCc3ccco3)o2)cc1 (stereo not drawn)	3.36
Cc1ccc(C(C)C)c(OCc2nc3c4cnn(-c5ccccc5)c4ncn3n2)c1	-3.96
CC1CC(=O)C2=C(C1)OC(N)=C(C#N)C21C(=O)Nc2ccc(Br)cc21 (stereo not drawn)	-4.87
CN1CCCN(C(=O)/C(=C/c2cccs2)NC(=O)c2ccccc2)CC1	-0.996
CN(C)c1ccc(C2CC(c3ccccc3)=NN2C(=O)c2cccs2)cc1 (stereo not drawn)	-4.59
CCCC/C(=N/O)c1c(C)[nH]c2ccccc12	2.62
CSC1=NSC2=NC(=O)/C(=C\c3ccc(C(=O)O)cc3)C(=N)N12	1.83
Cc1cc(C)c(C#N)c(SCC(=O)c2ccc(Br)cc2)n1	0.385
CCOc1cc2c(cc1OC)C(c1ccc(F)c(F)c1)NCC2 (stereo not drawn)	0.26
COc1ccccc1N1CCN(C(=O)c2cccc(C(=O)N3CCN(c4ccccc4OC)CC3)c2)CC1	0.0792
COc1ccc(OCC(O)CN(CCO)CCO)cc1 (stereo not drawn)	1.31
C=CCOc1cccc(-c2nc(O)c3c(n2)Oc2ccccc2C3)c1	-2.84
CCC(C)c1ccc(NC(=O)c2ccccc2OC)cc1 (stereo not drawn)	12.7
